Target: human EphA2 (Homo sapiens, UniProt P29317)
Assay: Competition Binding Assay (fluorescence polarisation, competition with fluorescent tracer BCY90)
Method: Peptides without a fluorescent tag were tested in competition with a peptide with a fluorescent tag and a known Kd.
Peptides were diluted to an appropriate concentration in assay buffer as described in the direct binding assay with a maximum of 5% DMSO, then serially diluted 1 in 2. […] Measurements were conducted, however the gain was determined prior to the first measurement. Data analysis was in Systat Sigmaplot version 12.0 where the mP values were fit to a user defined cubic equation to generate a Ki value: • f=ymax+(ymin−ymax)/Lig*((Lig*((2*((Klig+Kcomp+Lig+Comp−Prot*c)^2−3*(Kcomp*(Lig−Prot*c)+Klig*(Comp−Prot*c)+Klig*Kcomp))^0.5*COS(ARCCOS((−2*(Klig+Kcomp+Lig+Comp−Prot*c)^3+9*(Klig+Kcomp+Lig+Comp−Prot*c)*(Kcomp*(Lig−Prot*c)+Klig*(Comp−Prot*c)+Klig*Kcomp)−27*(−1*Klig*Kcomp*Prot*c))/(2*((((Klig+Kcomp+Lig+Comp−Prot*c)^2−3*(Kcomp*(Lig−Prot*c)+Klig*(Comp−Prot*c)+Klig*Kcomp))^3)^0.5)))/3))−(Klig+Kcomp+Lig+Comp−Prot*c)))/((3*Klig)+((2*((Klig+Kcomp+Lig+Comp−Prot*c)^2−3*(Kcomp*(Lig−Prot*c)+Klig*(Comp−Prot*c)+Klig*Kcomp))^0.5*COS(ARCCOS((−2*(Klig+Kcomp+Lig+Comp−Prot*c)^3+9*(Klig+Kcomp+Lig+Comp−Prot*c)*(Kcomp*(Lig−Prot*c)+Klig*(Comp−Prot*c)+Klig*Kcomp)−27*(−1*Klig*Kcomp*Prot*c))/(2*((((Klig+Kcomp+Lig+Comp−Prot*c)^2−3*(Kcomp*(Lig−Prot*c)+Klig*(Comp−Prot*c)+Klig*Kcomp))^3)^0.5)))/3))−(Klig+Kcomp+Lig+Comp−Prot*c)))). […]

Chain of human EphA2 (P29317 24-976): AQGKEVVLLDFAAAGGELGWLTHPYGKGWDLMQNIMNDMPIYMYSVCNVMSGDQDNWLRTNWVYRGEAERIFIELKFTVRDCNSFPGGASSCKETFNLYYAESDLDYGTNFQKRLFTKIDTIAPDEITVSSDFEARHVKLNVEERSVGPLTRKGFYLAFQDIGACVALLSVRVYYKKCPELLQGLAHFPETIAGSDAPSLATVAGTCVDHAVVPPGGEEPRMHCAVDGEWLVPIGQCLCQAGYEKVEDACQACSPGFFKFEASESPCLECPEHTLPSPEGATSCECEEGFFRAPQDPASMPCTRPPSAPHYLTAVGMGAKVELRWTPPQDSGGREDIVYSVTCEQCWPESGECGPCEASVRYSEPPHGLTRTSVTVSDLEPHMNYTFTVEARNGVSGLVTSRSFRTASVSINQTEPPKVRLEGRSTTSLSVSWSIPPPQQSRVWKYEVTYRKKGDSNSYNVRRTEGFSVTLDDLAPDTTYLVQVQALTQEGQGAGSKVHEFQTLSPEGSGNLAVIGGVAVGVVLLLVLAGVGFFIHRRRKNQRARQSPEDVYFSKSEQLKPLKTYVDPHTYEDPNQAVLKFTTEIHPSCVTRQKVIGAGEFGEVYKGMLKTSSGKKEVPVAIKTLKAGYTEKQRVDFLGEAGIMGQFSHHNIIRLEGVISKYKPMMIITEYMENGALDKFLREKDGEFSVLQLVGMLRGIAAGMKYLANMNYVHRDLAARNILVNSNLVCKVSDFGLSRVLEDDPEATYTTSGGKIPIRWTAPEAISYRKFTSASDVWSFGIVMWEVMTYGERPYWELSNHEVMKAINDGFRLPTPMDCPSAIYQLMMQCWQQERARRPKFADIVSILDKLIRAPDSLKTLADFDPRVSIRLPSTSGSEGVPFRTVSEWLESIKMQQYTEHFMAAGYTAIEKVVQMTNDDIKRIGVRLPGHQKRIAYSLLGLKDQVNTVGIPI

Substance: A[HArg]DCi[HyP]LVNPLCiiL[His1Me]P[dD]W[HArg]Ciii [BCY13918]
- Ki: 2.62 nM

Substance: A[HArg]DCi[HyP]LVNPLCiiL[His3Me]P[dD]W[HArg]Ciii [BCY13917]
- Ki: 1.72 nM

— US20260327262A1, “BICYCLIC PEPTIDE LIGANDS SPECIFIC FOR EPHA2” (BicycleTx Limited, priority 2019, published 2026)
